Results: US20210017279A1 (NANJING LEGEND BIOTECH, published 2021)
Read-outs that look alike come from different tables or passages of the source.

T1: Human LAG-3-His (human, UniProt P18627 29-450)
T1 construct: Bought recombinant protein; also called Human LAG-3 protein (Acrobiosystem, 772-6BGF2-D5); not shown: His tag
T1 sequence: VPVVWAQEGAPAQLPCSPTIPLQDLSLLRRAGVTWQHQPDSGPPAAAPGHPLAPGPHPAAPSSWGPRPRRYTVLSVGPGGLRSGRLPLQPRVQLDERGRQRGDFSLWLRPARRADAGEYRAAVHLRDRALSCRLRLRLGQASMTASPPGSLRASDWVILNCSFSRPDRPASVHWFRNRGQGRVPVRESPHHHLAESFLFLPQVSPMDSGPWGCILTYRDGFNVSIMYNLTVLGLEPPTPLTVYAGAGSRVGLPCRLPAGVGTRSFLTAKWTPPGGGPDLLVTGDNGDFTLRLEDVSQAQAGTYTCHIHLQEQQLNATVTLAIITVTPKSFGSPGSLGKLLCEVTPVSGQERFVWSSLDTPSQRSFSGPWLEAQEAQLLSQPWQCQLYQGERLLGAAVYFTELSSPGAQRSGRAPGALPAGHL

T2: human LAG-3 expressed on CHO-K1 cells (human, UniProt P18627 29-525)
T2 construct: also called CHO-huLAG-3 cells; LAG-3 expressed on CHO cells
T2 sequence: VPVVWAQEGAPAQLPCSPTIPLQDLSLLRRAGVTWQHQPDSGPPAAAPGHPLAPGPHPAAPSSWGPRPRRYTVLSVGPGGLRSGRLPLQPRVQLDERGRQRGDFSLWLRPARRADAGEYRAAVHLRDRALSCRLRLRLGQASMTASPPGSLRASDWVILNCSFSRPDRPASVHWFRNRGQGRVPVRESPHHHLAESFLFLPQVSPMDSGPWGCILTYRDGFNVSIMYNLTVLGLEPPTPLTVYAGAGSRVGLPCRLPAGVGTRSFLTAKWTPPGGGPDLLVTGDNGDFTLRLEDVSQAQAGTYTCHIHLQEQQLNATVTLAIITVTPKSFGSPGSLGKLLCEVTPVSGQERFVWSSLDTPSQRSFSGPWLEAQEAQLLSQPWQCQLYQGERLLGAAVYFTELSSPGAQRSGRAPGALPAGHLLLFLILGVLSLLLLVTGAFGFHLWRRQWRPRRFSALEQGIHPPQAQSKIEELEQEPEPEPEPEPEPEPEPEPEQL

T3: LAG-3-Fc (human, UniProt P18627 29-450, biotinylated (in the blocking assays))
T3 construct: Recombinant LAG-3-Fc (Acrobiosystems / R&D Systems); also called biotinylated LAG-3-Fc protein; not shown: Fc part
T3 sequence: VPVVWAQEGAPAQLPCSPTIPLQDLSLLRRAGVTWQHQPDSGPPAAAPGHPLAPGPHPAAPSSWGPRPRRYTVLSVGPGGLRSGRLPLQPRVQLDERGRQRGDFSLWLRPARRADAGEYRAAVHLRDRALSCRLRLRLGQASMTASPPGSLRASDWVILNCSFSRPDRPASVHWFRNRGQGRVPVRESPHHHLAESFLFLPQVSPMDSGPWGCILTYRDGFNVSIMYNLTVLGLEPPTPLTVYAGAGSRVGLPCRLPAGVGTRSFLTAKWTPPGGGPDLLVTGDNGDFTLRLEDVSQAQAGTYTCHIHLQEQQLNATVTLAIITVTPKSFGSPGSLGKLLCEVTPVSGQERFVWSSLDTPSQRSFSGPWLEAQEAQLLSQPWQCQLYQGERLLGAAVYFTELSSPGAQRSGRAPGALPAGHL


Legend:
[1] = molecular target: LAG-3 on Thaw-and-Use LAG-3 Effector cells; assay: cell-based or functional assay
Human LAG-3-His [2] = molecular target: T1, Human LAG-3-His; assay: SPR (Biacore T200), as in Example 3; Experiment 1
[3] = molecular target: T2, human LAG-3 expressed on CHO-K1 cells; assay: flow cytometry on CHO-K1 cells expressing human LAG-3
Method: (§1) To determine cell binding EC₅₀, CHO-K1 cells expressing human or cynomolgus LAG-3 were harvested and incubated with anti-LAG-3 sdAb-Fc fusion proteins at gradient concentrations, followed by fluorophore-labeled secondary antibodies against human Fc. […] The samples were then analyzed with flow cytometry. The binding and blocking curves were shown in FIG. 4 and FIG. 5, respectively.

[4] = molecular target: T4, cynomolgus LAG-3 expressed on CHO-K1 cells (cynomolgus); assay: flow cytometry on CHO-K1 cells expressing cynomolgus LAG-3
T4 construct: whole, on cells
Method: as §1

[5] = molecular target: T2, human LAG-3 expressed on CHO-K1 cells; assay: flow cytometry on CHO cells expressing LAG-3; Experiment 1
Human LAG-3-His [6] = molecular target: T1, Human LAG-3-His; assay: SPR (Biacore T200); antibody captured on chip, LAG-3 injected
Cynomolgus LAG-3-Fc [7] = molecular target: T5, Cynomolgus LAG-3-Fc (cynomolgus); assay: as above
T5 construct: Bought recombinant protein; also called cynomolgus LAG-3 protein (Acrobiosystem, 2187-71HF1-DZ)

LAG-3-Fc [8] = molecular target: T3, LAG-3-Fc; assay: flow cytometry competition; blocks biotinylated LAG-3-Fc binding to MHC II on A375 cells
Method: as §1

LAG-3-Fc [9] = molecular target: T3, LAG-3-Fc; assay: flow cytometry competition; blocks LAG-3-Fc binding to MHC II on A375 cells; Experiment 1
LAG-3-Fc [10] = molecular target: T3, LAG-3-Fc; assay: flow cytometry competition; span of the blocking curve, LAG-3-Fc binding to MHC II on A375 cells
Method: as §1

Human LAG-3-His [11] = molecular target: T1, Human LAG-3-His; assay: SPR (Biacore T200); antibody captured on chip, human LAG-3 injected
Cynomolgus LAG-3-Fc [12] = molecular target: T5, Cynomolgus LAG-3-Fc; assay: SPR (Biacore T200); cynomolgus LAG-3 immobilized, antibody injected
[13] = molecular target: LAG-3 on Thaw-and-Use LAG-3 Effector cells; assay: cell-based or functional assay; remark: listed apart in the source
Human LAG-3-His [14] = molecular target: T1, Human LAG-3-His; assay: SPR (Biacore T200), as in Example 3; Experiment 2
[15] = molecular target: T2, human LAG-3 expressed on CHO-K1 cells; assay: flow cytometry on CHO cells expressing LAG-3; Experiment 2
Method: as §1

LAG-3-Fc [16] = molecular target: T3, LAG-3-Fc; assay: flow cytometry competition; blocks LAG-3-Fc binding to MHC II on A375 cells; Experiment 2

LAG-3 blockade reporter assay EC50 [1]	Kd (Human LAG-3-His [2])	EC50 [3]	EC50 [4]	EC50 [5]	Kd (Human LAG-3-His [6])	koff (Human LAG-3-His [6])	kon (Human LAG-3-His [6])	Kd (Cynomolgus LAG-3-Fc [7])	koff (Cynomolgus LAG-3-Fc [7])	kon (Cynomolgus LAG-3-Fc [7])	EC50 (LAG-3-Fc [8])	EC50 (LAG-3-Fc [9])	Span (LAG-3-Fc [10])	Kd (Human LAG-3-His [11])	koff (Human LAG-3-His [11])	kon (Human LAG-3-His [11])	Kd (Cynomolgus LAG-3-Fc [12])	koff (Cynomolgus LAG-3-Fc [12])	kon (Cynomolgus LAG-3-Fc [12])	Binder	other results
1.67 nM	0.11 nM	0.39 nM	1.02 nM	0.304 nM	0.11 nM	0.00024 s⁻¹	2.2e+06 M⁻¹ s⁻¹	0.052 nM	0.00028 s⁻¹	5.3e+06 M⁻¹ s⁻¹	6.58 nM	1.06 nM	328							AS20594-Fc (Fc fusion, also called AS20594 HCAb; non-humanized anti-LAG-3 sdAb-Fc fusion protein) QVQLAESGGGSVQAGGSLRLSCAASGYTISSYCMGWFRQAPGKEREGVAAIDSDGSTSYADSVKGRFTISKDNAKNTLYLQMNSLKPEDTAMYYCAADFCWVDDFYEYNYWGQGTQVTVSS[letters of human IgG4 Fc with S228P (EU numbers) omitted]	
														0.49 nM	0.00079 s⁻¹	1.6e+06 M⁻¹ s⁻¹	51 nM	0.0033 s⁻¹	65000 M⁻¹ s⁻¹	AS20594VH10-Fc (Fc fusion, also called AS20594VH10 HCAb; humanized anti-LAG-3 sdAb-Fc fusion protein) EVQLVESGGGLVQPGGSLRLSCAASGYTISSYCMGWFRQAPGKGLEGVAAIDSDGSTSYADSVKGRFTISKDNSKNTLYLQMNSLRAEDTAVYYCAADFCWVDDFYEYNYWGQGTLVTVSS[letters of human IgG4 Fc with S228P (EU numbers) omitted]	
1.34 nM	0.042 nM	0.494 nM	1.61 nM	0.229 nM	0.042 nM	0.00018 s⁻¹	4.4e+06 M⁻¹ s⁻¹	0.29 nM	0.0035 s⁻¹	1.2e+07 M⁻¹ s⁻¹	7.99 nM	0.844 nM	260							AS20601-Fc (Fc fusion, also called AS20601 HCAb; non-humanized anti-LAG-3 sdAb-Fc fusion protein) EVQLAESGGGSVQAGGSLRLSCAASGYTYGGYCMGWFRQAPGKEREGVATINSDGSTNYADSVKGRFTISKDNAKNTLYLQMNSLSPEDTAMYYCAVDLAPCWVAGPIEAADFGYWGQGTQVTVSS[letters of human IgG4 Fc with S228P (EU numbers) omitted]	
3.98 nM														0.1 nM	0.00033 s⁻¹	3.2e+06 M⁻¹ s⁻¹	76 nM	0.007 s⁻¹	92000 M⁻¹ s⁻¹	AS20601VH4-Fc (Fc fusion, also called AS20601VH4 HCAb; humanized anti-LAG-3 sdAb-Fc fusion protein) EVQLVESGGGLVQPGGSLRLSCAASGYTYGGYCMGWFRQAPGKGLEGVSTINSDGSTNYADSVKGRFTISRDNSKNTLYLQMNSLRAEDTAVYYCAVDLAPCWVAGPIEAADFGYWGQGTLVTVSS[letters of human IgG4 Fc with S228P (EU numbers) omitted]	LAG-3 blockade reporter assay EC50 [13]: 3.98 nM; LAG-3 blockade reporter assay Signal span (% activation) [13]: 92.7 % activation; Kd (Human LAG-3-His [14]): 0.1 nM; EC50 [15]: 14.5 nM; EC50 (LAG-3-Fc [16]): 49.8 nM
